# Results reported in the supplement of paper PMC3334620.
# Over roughly 33,000 sequences, “E-score (-0.5 to 0.5)” has its median near -0.012; the highest 2% begin near 0.29. This is one part of the list.
# Target: T1, Ybr033w (UniProt P38073)
# T1 sequence: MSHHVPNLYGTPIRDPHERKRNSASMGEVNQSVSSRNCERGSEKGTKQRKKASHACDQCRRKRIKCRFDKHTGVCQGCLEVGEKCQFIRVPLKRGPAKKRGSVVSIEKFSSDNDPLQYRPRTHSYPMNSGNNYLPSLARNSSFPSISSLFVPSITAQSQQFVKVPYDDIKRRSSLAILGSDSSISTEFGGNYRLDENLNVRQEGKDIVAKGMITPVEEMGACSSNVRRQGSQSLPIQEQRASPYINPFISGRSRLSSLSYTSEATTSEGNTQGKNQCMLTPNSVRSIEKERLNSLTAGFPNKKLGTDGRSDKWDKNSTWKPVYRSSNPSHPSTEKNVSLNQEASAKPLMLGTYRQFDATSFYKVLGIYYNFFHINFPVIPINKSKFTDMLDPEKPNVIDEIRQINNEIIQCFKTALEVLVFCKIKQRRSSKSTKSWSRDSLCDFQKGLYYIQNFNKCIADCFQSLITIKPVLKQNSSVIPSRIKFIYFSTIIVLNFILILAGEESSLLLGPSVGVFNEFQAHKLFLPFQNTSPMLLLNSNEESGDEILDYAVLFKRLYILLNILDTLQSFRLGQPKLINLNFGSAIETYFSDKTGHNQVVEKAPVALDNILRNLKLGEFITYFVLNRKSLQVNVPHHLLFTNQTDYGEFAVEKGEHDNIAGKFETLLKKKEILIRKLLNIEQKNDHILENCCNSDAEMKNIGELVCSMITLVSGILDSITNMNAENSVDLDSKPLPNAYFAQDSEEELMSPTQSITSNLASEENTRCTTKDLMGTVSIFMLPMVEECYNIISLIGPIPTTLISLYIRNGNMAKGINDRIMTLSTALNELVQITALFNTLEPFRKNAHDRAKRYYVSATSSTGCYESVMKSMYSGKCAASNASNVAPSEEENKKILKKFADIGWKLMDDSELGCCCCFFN
# Assay: PBM E-score (8-mer binding enrichment) (E-score (-0.5 to 0.5)); higher = stronger / more preferred TF binding; most listed sequences are background and not binding sites
# Settings: protein concentration: 200 nM; construct: GST-full length
# Procedure, shortened: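 GST-tagged yeast TFs (full-length or DNA-binding domain) were made by PURExpress in vitro transcription/translation and applied at about 100-200 nM to universal all-10-mer Agilent arrays. The arrays were made double-stranded by primer extension, on fresh or once-stripped slides. Bound protein was detected with fluorescent anti-GST, and scans were normalised with masliner. Each ungapped eight-base word, pooled with its reverse complement, received an E-score (modified Wilcoxon-Mann-Whitney statistic) from the Universal PBM Analysis Suite.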
row,Sequence,PBM E-score
1,GTTGCCAA,0.00317
2,AATATCGG,0.198
3,AATCGCAG,0.0974
4,ACTATTAA,0.325
5,AGAAATGC,0.135
6,CGAGGAAC,0.041
7,ATTCTGGA,0.0822
8,AAGCAGCA,-0.0562
9,ATTAGTCA,0.153
10,AATTTCTA,0.209
11,GTGCCCCA,-0.254
12,AAACCCGG,0.0726
13,TCAGACAA,-0.101
14,GGGCGATA,-0.326
15,CAGATAAA,0.194
16,AAAATCAT,0.31
17,ATGTCCTG,0.0605
18,ACCTAGCT,-0.188
19,AATGGAGT,-0.00198
20,GATCTTTA,0.142
21,AGGTCTTC,-0.239
22,ATTGGATG,0.131
23,GACCACCA,-0.0711
24,AACTATAC,0.151
25,AACGTTAC,-0.0428

row,Sequence,PBM E-score
1,GAAGATCA,0.218
2,GCGATGCA,-0.301
3,ACCAAACC,0.062
4,GTCGCGAA,-0.0704
5,ACCGACAT,0.0515
6,CGAACAGA,-0.0434
7,AAGATCAC,-0.0901
8,GCCAGGTA,-0.171
9,CCAGGCTC,-0.152
10,TATCCGAA,0.264
11,CCGGGTTC,-0.0329
12,GAGAGCCA,-0.251
13,CGAGGATC,0.0125
14,AAGGGCTA,-0.0643
15,CCTGGGAG,-0.201
16,GGGTGACC,-0.17
17,CAAAACAA,0.0338
18,GACATTCC,-0.0632
19,CACTCATG,0.0247
20,ACGCACAG,0.0777
21,CTTGCACC,-0.109
22,CCGCCCAC,-0.0778
23,AGGCGCTA,-0.0272
24,AGGCTAAA,0.101
25,CACCGTTA,-0.0335

row,Sequence,PBM E-score
1,GGCGACAC,-0.146
2,CGTCTCGA,0.105
3,AAGGATCC,-0.0384
4,AATGATTA,0.251
5,AAATATTG,0.274
6,GTCTATGA,0.0614
7,CCGGCAAG,-0.061
8,AGTTCATC,0.238
9,GGCGGGTA,-0.268
10,AAGGATGT,0.135
11,ACGGCAGG,-0.238
12,GTATATGA,0.233
13,ATTTACTA,0.269
14,ATTTTTCG,0.18
15,GGGTTCAA,0.0202
16,CCGGATAA,0.454
17,GTTGGAGA,0.0621
18,CTCTCCCA,-0.196
19,GTTGTGAA,0.123
20,CTATTGTC,0.02
21,ACGGGAAT,0.0676
22,GATGGAAA,-0.0152
23,TCCTCTCA,0.0168
24,ACCAAGTA,0.13
25,GTTACTAA,0.134

row,Sequence,PBM E-score
1,CTGTTCGC,-0.0349
2,CTGGGGTA,-0.116
3,GCCCACCC,-0.168
4,GTCGGGTA,0.0573
5,GGGTCTAA,-0.0545
6,CTTAGATA,0.138
7,ATACCGTA,0.0449
8,AATCGCCT,0.173
9,ATGGCCAT,-0.0509
10,AACGCTCG,-0.0603
11,CCAAACTC,0.11
12,CGACCTAC,-0.288
13,ACCCGCGC,0.168
14,GATGGGGC,-0.24
15,GGCCTACA,-0.0971
16,CGGGGAAC,0.0127
17,AAAATCGC,0.186
18,CCGTACAG,-0.115
19,ACCGTAGT,-0.0649
20,TGTGTAAA,0.231
21,CAATCACA,0.0651
22,AAACCCAA,0.269
23,ATGAATTC,0.19
24,AACAATCA,0.279
25,ATCATAGG,-0.0728

row,Sequence,PBM E-score
1,ACCCGAAG,-0.0833
2,CACTTTCC,-0.155
3,GCGTTAGC,-0.0265
4,GGGTGCGA,-0.231
5,AGGTGTCA,0.0718
6,TGTTCAAA,0.147
7,CCGAAAAA,0.219
8,AAAAATCA,0.24
9,GTTCAGGA,0.0149
10,CCATACAA,0.0328
11,CAAATTAC,0.161
12,GAGACGAC,-0.038
13,CTTAGGAA,0.13
14,AGAGTAAC,0.0237
15,ACGATAGG,-0.0592
16,TCAACTAA,0.173
17,GACGTTAA,0.0676
18,AACTTAGG,0.0738
19,GTCTGGCA,-0.00403
20,CAGGATAC,-0.182
21,AATCATAT,0.126
22,TAGGGAAA,-0.00431
23,CTGTGTAA,0.138
24,GTGACAAC,0.151
25,AAGCCTCC,-0.111

row,Sequence,PBM E-score
1,CTTTCATA,0.252
2,GAGATGAA,-0.116
3,AAAATAGG,0.19
4,CCGGCGCC,-0.127
5,GCTAGAGA,0.0592
6,ACGGTTCG,-0.164
7,CGACTCTC,-0.164
8,GAAAGACC,-0.187
9,CTTGATTA,0.168
10,ATAGAGTG,0.0526
11,GGTGGACA,-0.156
12,AAATTCGG,0.257
13,CTATATCA,0.248
14,AAAATGTA,0.207
15,ACGTTCGA,-0.0218
16,AGATGAAC,0.131
17,ATGACCAG,0.00781
18,GGTTGCGA,0.0313
19,CGGGGTTA,-0.0771
20,ATAGCAAT,0.146
21,AATGTTGC,0.0212
22,AAGTTGCG,0.095
23,CAGGCACG,-0.2
24,CCCGCTCC,-0.352
25,AAGGCCGC,0.00241

row,Sequence,PBM E-score
1,AGATTGGC,-0.0966
2,AGAGCAGG,0.0576
3,TATCGAGA,0.136
4,ACAAGACT,-0.087
5,CCCAGGGG,-0.27
6,GGTAGCCA,-0.234
7,AAAATCTC,0.138
8,CTTCGAGC,-0.158
9,GCCAAGAC,-0.082
10,CTGACCAC,-0.1
11,ATTCGCCA,-0.0296
12,AGGCCTCC,-0.329
13,GGATTCAC,-0.157
14,ATTGGCTG,-0.111
15,TATTGTAA,0.167
16,TCACCTCA,0.0189
17,CGGCTCAA,0.103
18,AGCCCTAG,-0.0824
19,GCTAACCA,-0.0185
20,CGTGATGA,-0.0784
21,CATTAAAA,0.319
22,ATGCTAAT,0.226
